According to publication PMC9911399, “Two distinct binding modes provide the RNA-binding protein RbFox with extraordinary sequence specificity”:
Where a chain is given by its changes, count along the chain named. Some of the results follow.

T1: RBFOX1 RRM (Homo sapiens, UniProt Q9NWB1 109-208)
T1 sequence: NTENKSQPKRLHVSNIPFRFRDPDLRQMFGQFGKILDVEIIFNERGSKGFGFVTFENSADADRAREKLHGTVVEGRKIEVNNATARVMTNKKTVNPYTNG

B1: AGCGCUU (DNA:RNA)
RNA: GGGAGACCGGAAUUCAGAUUGUCCAGCGCUUUUAAAUCCCGUCGUAGCCACCA
DNA 1: CAATCTGAATTCCGGTCTCCC
DNA 2: TGGTGGCTACGACGGGATT
B2: AGGGCUG (DNA:RNA)
RNA: B1 RNA with C27G, U31G
DNA 1: CAATCTGAATTCCGGTCTCCC
DNA 2: TGGTGGCTACGACGGGATT
B3: GGUGGUA (DNA:RNA)
RNA: B1 RNA with A25G, C27U, C29G, U31A
DNA 1: CAATCTGAATTCCGGTCTCCC
DNA 2: TGGTGGCTACGACGGGATT
B4: GUCCGCC (DNA:RNA)
RNA: B1 RNA with A25G, G26U, G28C, C29G, U30C, U31C
DNA 1: CAATCTGAATTCCGGTCTCCC
DNA 2: TGGTGGCTACGACGGGATT
B5: ACUAAGC (DNA:RNA)
RNA: B1 RNA with G26C, C27U, G28A, C29A, U30G, U31C
DNA 1: CAATCTGAATTCCGGTCTCCC
DNA 2: TGGTGGCTACGACGGGATT
B6: CCGGUUC (DNA:RNA)
RNA: B1 RNA with A25C, G26C, C27G, C29U, U31C
DNA 1: CAATCTGAATTCCGGTCTCCC
DNA 2: TGGTGGCTACGACGGGATT
B7: GCGCGCC (DNA:RNA)
RNA: GGGAGACCGGAAUUCAGAUUGUCCGCGCGCCUUAAAUCCCGUCGUAGCCACCA
DNA 1: CAATCTGAATTCCGGTCTCCC
DNA 2: TGGTGGCTACGACGGGATT
B8: CGGUAUU (DNA:RNA)
RNA: B1 RNA with A25C, C27G, G28U, C29A
DNA 1: CAATCTGAATTCCGGTCTCCC
DNA 2: TGGTGGCTACGACGGGATT
B9: UCAUUUA (DNA:RNA)
RNA: B1 RNA with A25U, G26C, C27A, G28U, C29U, U31A
DNA 1: CAATCTGAATTCCGGTCTCCC
DNA 2: TGGTGGCTACGACGGGATT
B10: GCCCCCG (DNA:RNA)
RNA: B7 RNA with G27C, G29C, C31G
DNA 1: CAATCTGAATTCCGGTCTCCC
DNA 2: TGGTGGCTACGACGGGATT
B11: GGCCUAU (DNA:RNA)
RNA: B1 RNA with A25G, G28C, C29U, U30A
DNA 1: CAATCTGAATTCCGGTCTCCC
DNA 2: TGGTGGCTACGACGGGATT
B12: AUAAACA (DNA:RNA)
RNA: B1 RNA with G26U, C27A, G28A, C29A, U30C, U31A
DNA 1: CAATCTGAATTCCGGTCTCCC
DNA 2: TGGTGGCTACGACGGGATT
B13: UACUAAG (DNA:RNA)
RNA: B1 RNA with A25U, G26A, G28U, C29A, U30A, U31G
DNA 1: CAATCTGAATTCCGGTCTCCC
DNA 2: TGGTGGCTACGACGGGATT
B14: UAAGAUA (DNA:RNA)
RNA: B1 RNA with A25U, G26A, C27A, C29A, U31A
DNA 1: CAATCTGAATTCCGGTCTCCC
DNA 2: TGGTGGCTACGACGGGATT
B15: ACCAUUG (DNA:RNA)
RNA: B1 RNA with G26C, G28A, C29U, U31G
DNA 1: CAATCTGAATTCCGGTCTCCC
DNA 2: TGGTGGCTACGACGGGATT
B16: AAGCCUA (DNA:RNA)
RNA: B1 RNA with G26A, C27G, G28C, U31A
DNA 1: CAATCTGAATTCCGGTCTCCC
DNA 2: TGGTGGCTACGACGGGATT
B17: GAAGUAU (DNA:RNA)
RNA: B1 RNA with A25G, G26A, C27A, C29U, U30A
DNA 1: CAATCTGAATTCCGGTCTCCC
DNA 2: TGGTGGCTACGACGGGATT
B18: CUAGCCA (DNA:RNA)
RNA: B1 RNA with A25C, G26U, C27A, U30C, U31A
DNA 1: CAATCTGAATTCCGGTCTCCC
DNA 2: TGGTGGCTACGACGGGATT
B19: AUUUGCU (DNA:RNA)
RNA: B1 RNA with G26U, C27U, G28U, C29G, U30C
DNA 1: CAATCTGAATTCCGGTCTCCC
DNA 2: TGGTGGCTACGACGGGATT
B20: GCAGUGC (DNA:RNA)
RNA: B7 RNA with G27A, C28G, G29U, C30G
DNA 1: CAATCTGAATTCCGGTCTCCC
DNA 2: TGGTGGCTACGACGGGATT
B21: GACCGCA (DNA:RNA)
RNA: B7 RNA with C26A, G27C, C31A
DNA 1: CAATCTGAATTCCGGTCTCCC
DNA 2: TGGTGGCTACGACGGGATT
B22: CCUGUAC (DNA:RNA)
RNA: B7 RNA with G25C, G27U, C28G, G29U, C30A
DNA 1: CAATCTGAATTCCGGTCTCCC
DNA 2: TGGTGGCTACGACGGGATT
B23: UGGUAGC (DNA:RNA)
RNA: B7 RNA with G25U, C26G, C28U, G29A, C30G
DNA 1: CAATCTGAATTCCGGTCTCCC
DNA 2: TGGTGGCTACGACGGGATT
B24: CGAUCGU (DNA:RNA)
RNA: B1 RNA with A25C, C27A, G28U, U30G
DNA 1: CAATCTGAATTCCGGTCTCCC
DNA 2: TGGTGGCTACGACGGGATT
B25: CUAGACG (DNA:RNA)
RNA: B1 RNA with A25C, G26U, C27A, C29A, U30C, U31G
DNA 1: CAATCTGAATTCCGGTCTCCC
DNA 2: TGGTGGCTACGACGGGATT
B26: UUAUAUU (DNA:RNA)
RNA: B1 RNA with A25U, G26U, C27A, G28U, C29A
DNA 1: CAATCTGAATTCCGGTCTCCC
DNA 2: TGGTGGCTACGACGGGATT
B27: AAUGGGC (DNA:RNA)
RNA: B1 RNA with G26A, C27U, C29G, U30G, U31C
DNA 1: CAATCTGAATTCCGGTCTCCC
DNA 2: TGGTGGCTACGACGGGATT
B28: UGUCACC (DNA:RNA)
RNA: B7 RNA with G25U, C26G, G27U, G29A
DNA 1: CAATCTGAATTCCGGTCTCCC
DNA 2: TGGTGGCTACGACGGGATT
B29: UUGAGGG (DNA:RNA)
RNA: B7 RNA with G25U, C26U, C28A, C30G, C31G
DNA 1: CAATCTGAATTCCGGTCTCCC
DNA 2: TGGTGGCTACGACGGGATT
B30: AAAUGUA (DNA:RNA)
RNA: B1 RNA with G26A, C27A, G28U, C29G, U31A
DNA 1: CAATCTGAATTCCGGTCTCCC
DNA 2: TGGTGGCTACGACGGGATT
B31: CCGUCAG (DNA:RNA)
RNA: B7 RNA with G25C, C28U, G29C, C30A, C31G
DNA 1: CAATCTGAATTCCGGTCTCCC
DNA 2: TGGTGGCTACGACGGGATT

What follows are binders tested against T1, RBFOX1 RRM (assay: EMSA; HiTS-Eq, 1 nM pool, 10 min; buffer printed only for the single-RNA assays: 10 mM Tris pH 7.5, 150 mM NaCl, 3.4 mM EDTA, 0.001% NP-40, 30 C). Conditions: tags: His6 N-terminal (pET28a); label: 5' 32P.
How it was run: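 A pool of RNA with 7 randomized nucleotides, 5′-radiolabelled and with DNA-annealed flanks, was equilibrated at 1 nM for 10 min in 50 µL with purified RbFox RRM, wild type or mutant, across increasing protein concentrations. Free RNA was separated by 8% native PAGE, excised, reverse-transcribed, barcoded by PCR and sequenced. Relative association constants were obtained from read-count changes of each RNA species versus the control reaction and normalised to the cognate motif.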

Binder	binding signal
B1	0.00875 KA relative to UGCAUGU
B2	0.0262 KA relative to UGCAUGU
B3	0.0276 KA relative to UGCAUGU
B4	0.0105 KA relative to UGCAUGU
B5	0.00409 KA relative to UGCAUGU
B6	0.00923 KA relative to UGCAUGU
B7	0.0164 KA relative to UGCAUGU
B8	0.00739 KA relative to UGCAUGU
B9	0.00106 KA relative to UGCAUGU
B10	0.0144 KA relative to UGCAUGU
B11	0.00391 KA relative to UGCAUGU
B12	0.00193 KA relative to UGCAUGU
B13	0.0139 KA relative to UGCAUGU
B14	0.00922 KA relative to UGCAUGU
B15	0.00628 KA relative to UGCAUGU
B16	0.000665 KA relative to UGCAUGU

Binder	binding signal
B17	0.00636 KA relative to UGCAUGU
B18	0.00555 KA relative to UGCAUGU
B19	0.014 KA relative to UGCAUGU
B20	0.0169 KA relative to UGCAUGU
B21	0.0106 KA relative to UGCAUGU
B22	0.00765 KA relative to UGCAUGU
B23	0.0193 KA relative to UGCAUGU
B24	0.0178 KA relative to UGCAUGU
B25	0.0055 KA relative to UGCAUGU
B26	0.00153 KA relative to UGCAUGU
B27	0.0114 KA relative to UGCAUGU
B28	0.0116 KA relative to UGCAUGU
B29	0.00788 KA relative to UGCAUGU
B30	0.00248 KA relative to UGCAUGU
B31	0.00788 KA relative to UGCAUGU
